Hit rate of the full screen: of about 330,000 compounds, about 1,700 (0.52%) were called active. The shares of active, inactive and inconclusive entries below differ from those in the screen. Calls come from the whole dose curve; as a rule, active = well fitted inhibition curve with a large enough effect; inconclusive = small, poorly fitted or top-dose-only effect; inactive = no such curve, though single readings can be large or run the other way. A potency beside an inconclusive call is a rough fit, not a confirmed value.
The molecules below were run against Beta-lactamase (Escherichia coli (strain K12)) (UniProt P00811) (assay: qHTS Inhibitors of AmpC Beta-Lactamase (assay without detergent)). Conditions: AmpC nitrocefin hydrolysis, absorbance 480 nm, 0.0001% Triton; activity change, negative = inhibition: at 57.1 µM (top of the series) unless noted.
UniProt P00811, sequence (P00811 whole entry, looked up): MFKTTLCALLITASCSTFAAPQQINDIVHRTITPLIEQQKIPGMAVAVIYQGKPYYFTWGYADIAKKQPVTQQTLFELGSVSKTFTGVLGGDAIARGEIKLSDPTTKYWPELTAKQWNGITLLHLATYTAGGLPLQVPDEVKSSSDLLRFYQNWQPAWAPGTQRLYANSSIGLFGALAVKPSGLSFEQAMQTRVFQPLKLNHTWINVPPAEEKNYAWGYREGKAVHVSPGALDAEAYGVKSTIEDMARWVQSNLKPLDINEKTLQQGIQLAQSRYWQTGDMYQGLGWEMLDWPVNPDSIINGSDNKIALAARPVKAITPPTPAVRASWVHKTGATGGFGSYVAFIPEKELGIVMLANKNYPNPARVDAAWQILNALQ
Method in brief: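 AmpC (5.3 nM in the dispensed reagent) in 20 mM phosphate pH 7.0 with 0.01% (detergent screen) or 0.0001% Triton X-100 was preincubated with compounds for 15 min at room temperature. Nitrocefin was then added from an 800 uM solution, and hydrolysis was followed at 480 nm.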
Note: nearly all actives have a fitted effect of over 20% in size.
Potency is the fitted concentration of half-maximal effect; tags give direction and shape of the fitted curve.
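Throughout, for activity change, negative = inhibition: plate controls were no compound for no effect and no enzyme for full effect.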

SMILES | activity change, negative = inhibition | Potency
Cc1ccc(S(=O)(=O)N2CCN(C)CC2)cc1[N+](=O)[O-] | inactive: -4.26% | –
COc1ccc(N2C(N)=NC(N)=NC23CCCC3)cc1 | inactive: -11.1% | –
O=C(Nc1ccccc1OC(F)F)c1cccc(S(=O)(=O)N2CCCC2)c1 | inactive: -10.5% | –
O=C(CC(=O)NC1CCCCC1)N/N=C/c1cccc2ccccc12 | – | inconclusive: 2.51 µM [inhibitor, partial curve, poor fit]
CC(=O)NC(CCS(C)(=O)=O)C(=O)Nc1ccccc1 (stereo unspecified) | – | active: 5.01 µM
O=C1CCC(C(=O)N2CCCCO2)CN1CCc1ccccc1 (stereo unspecified) | inactive: -7.92% | –
Cc1cc2c(cc1S(=O)(=O)NCc1ccccc1)NC(=O)CO2 | – | inconclusive: 31.6 µM [inhibitor, single point]
CCOc1cc(/C=N/N=C(/N)c2nonc2N)cc(Br)c1OCc1ccc(Cl)cc1 | – | active: 15.8 µM
Clc1cccc(N2CCN(Cc3nc(-c4ccccc4)no3)CC2)c1 | – | active: 10 µM
CC(=O)c1cc(C)ccc1OC(=O)c1ccco1 | – | inconclusive: 6.31 µM [inhibitor, single point]
O=C(CCNC(=O)c1ccc([N+](=O)[O-])cc1)NCCC1=CCCCC1 | – | inconclusive: 35.5 µM [inhibitor, single point]
O=C(C[n+]1cc(-c2ccccc2)n2c1CCC2)Nc1nc(-c2ccccc2)cs1 | inactive: 119% | –
O=C(Nc1ccccc1C(=O)N1CCOCC1)c1cccc(S(=O)(=O)N2CCCC2)c1 | – | inconclusive: 3.98 µM [inhibitor, single point]
CN(C)S(=O)(=O)c1cccc(-c2nnc(SCC(=O)NCCCCCC(=O)O)n2-c2ccc(F)cc2)c1 | inactive: -15.9% | –
CN(C)c1nc(C(=O)OCCO)nc(N(C)C)n1 | – | inconclusive: 5.62 µM [inhibitor, single point]
CC(SCC(=O)NC12CC3CC(CC(C3)C1)C2)C(=O)O (stereo unspecified) | inactive: -7.34% | –
CCN(CC)S(=O)(=O)c1ccc(N2CCCCC2)c(NC(=O)/C(C#N)=C/c2ccc(OC)cc2)c1 | – | active: 3.98 µM
O=c1cc(-c2ccccc2)[nH]n1-c1nc2ccccc2[nH]1 | – | inconclusive: 31.6 µM [inhibitor, single point]
COc1ccc(CCNC(=O)CCc2cn(C)c3ccccc23)c(OC)c1OC | inactive: 45.4% | –
CCCSc1nc(N)c2c3c(sc2n1)CN(C)CC3 | inactive: -45% | –
O=C(Nc1ccc(F)cc1)Nc1ccc(NC(=O)c2ccccc2O)cc1 | – | inconclusive: 14.1 µM [inhibitor, partial curve]
Nn1c(SCc2ccc(Br)cc2)nnc1-c1ccncc1 | inactive: -7.03% [at 2.29 µM] | –
CCOC(=O)/C(=N/Nc1ccccc1)N1CCCc2ccccc21 | – | active: 25.1 µM
COC(=O)c1cccc(CSc2nc3ccccc3[nH]2)c1 | inactive: -34.2% | –
Cc1ccc(C(=O)OCC(=O)N(CC(C)C)c2c(N)n(Cc3ccccc3)c(=O)[nH]c2=O)o1 | – | inconclusive: 39.8 µM [inhibitor, single point]
O=C(Nc1ccc(-c2csc(Nc3ccccc3)n2)cc1)c1cccc(C(F)(F)F)c1 | – | active: 3.55 µM

SMILES | activity change, negative = inhibition | Potency
O=C(O)Cc1sc(N/N=C\c2ccccc2)nc1-c1ccccc1 | – | inconclusive: 31.6 µM [inhibitor, partial curve]
COc1ccc(S(=O)(=O)n2nc(OC(=O)c3cccs3)cc2NC(=O)c2cccs2)cc1 | – | inconclusive: 25.1 µM [inhibitor, single point]
CN(C)S(=O)(=O)c1ccc(C(=O)NCc2ccc3[nH]c4c(c3c2)CCCC4)cc1 | – | active: 28.2 µM
CCCCN(C(=O)c1ccc(S(=O)(=O)N2CCCC2)cc1)C1CCS(=O)(=O)C1 (stereo unspecified) | – | inconclusive: 35.5 µM [inhibitor, single point]
Cc1cc(C)nc(NC2=NCC(=O)N2c2ccc3c(c2)OCCO3)n1 | – | inconclusive: 6.31 µM [inhibitor, single point]
COc1ccc(C2=NN(C(=O)CSc3cn(C)c4ccccc34)C(c3ccc(OC)cc3)C2)cc1 (stereo unspecified) | – | active: 1.58 µM
Cc1ccc(-n2ncc(Br)c(Br)c2=O)cc1 | inactive: -20.7% [at 2.29 µM] | –
COc1ccc(C(=O)N/N=C/c2ccc(OC(=O)c3cccc4ccccc34)c([N+](=O)[O-])c2)cc1 | – | active: 28.2 µM
Cc1ccc(C)c(NC(=O)Cn2nnc(-c3ccc(N4CCOCC4)cc3)n2)c1 | inactive: -24.6% | –
Cc1ccc(C2(CCNCc3ccc(N(C)C)cc3)CCOC(C(C)C)C2)cc1 (stereo unspecified) | inactive: 63.2% | –
O=C(NCCCn1ccnc1)C1CCCN(S(=O)(=O)c2ccc(F)cc2)C1 (stereo unspecified) | inactive: -2.1% | –
Cc1ccc(NC(=O)C(SCC(=O)O)c2ccccc2)cc1C (stereo unspecified) | – | inconclusive: 6.31 µM [inhibitor, single point]
O=C(CC1SC(=O)N(c2ccccc2)C1=O)Nc1ccc(Br)cc1 (stereo unspecified) | – | active: 8.91 µM
CC(=O)c1c(C)[nH]c(C(=O)OCC(=O)Nc2ccccc2Cl)c1C | inactive: -38% | –
Cc1[nH]c2ccccc2c1CCO | – | inconclusive: 8.91 µM [inhibitor, single point]
CCCCSc1nc2c(cnn2-c2ccc(F)cc2)c(=O)[nH]1 | – | active: 39.8 µM
O=C(Cc1ccccc1)Nc1ccc(Br)c(Cl)c1 | inactive: -28.6% | –
O=C(CN(Cc1ccccc1)S(=O)(=O)c1ccc2c(c1)OCCO2)N/N=C/c1cccc(Br)c1 | – | inconclusive: 1.78 µM [inhibitor, full curve, poor fit]
Cc1ccc(C)c(NC(=O)C2Cc3ccccc3CN2C(=O)OCc2ccccc2)c1 (stereo unspecified) | – | inconclusive: 2.82 µM [inhibitor, partial curve, poor fit]
Cc1ccc(SCc2[nH]nc3c2C2(CCSCC2)C(C#N)=C(N)O3)cc1 | – | active: 28.2 µM
Cc1ccccc1OCC(=O)N/N=C/c1sc(=O)n(Cc2cccc(C(=O)O)c2)c1Cl | – | inconclusive: 7.94 µM [inhibitor, full curve, poor fit]
CCOC(=O)N1CCC(NC(=O)Cn2cc3c(n2)CCCC3)CC1 | – | active: 2.82 µM
CCOc1ccc(CCN2C(=O)C3C4C=CC(C4)C3C2=O)cc1OCC (stereo unspecified) | – | inconclusive: 50.1 µM [inhibitor, partial curve, poor fit]
Cc1oc2c(c1C(=O)NCc1ccccc1)CCCC2 | inactive: -22.3% | –
CCOC(=O)C1=NOC(CNC(=O)c2c(-c3ccccc3Cl)noc2C)C1 (stereo unspecified) | – | inconclusive: 5.62 µM [inhibitor, single point]
S=c1[nH]nc(-c2ccc(Br)cc2)n1Cc1ccco1 | – | inconclusive: 3.16 µM [inhibitor, partial curve, poor fit]

SMILES | activity change, negative = inhibition | Potency
CC(C)c1ccc(N2C(=O)NC(=O)/C(=C\C=C\c3ccco3)C2=O)cc1 | – | inconclusive: 11.2 µM [inhibitor, partial curve]
COc1cccc(N2CC(NC(=O)c3ccc4ccccc4c3)CC2=O)c1 (stereo unspecified) | – | inconclusive: 39.8 µM [inhibitor, single point]
CCCn1c(=O)c2ccccc2n2c(SCc3nc4ccccc4s3)nnc12 | inactive: -28.9% | –
Cc1cccc(NC(=O)/C(C#N)=C/c2cn(CC(=O)NCc3ccco3)c3ccccc23)c1 | – | active: 14.1 µM
O=C(NCC(c1cccnc1)N1CCN(c2ccccc2F)CC1)c1ccco1 (stereo unspecified) | – | inconclusive: 0.316 µM [inhibitor, full curve, poor fit]
CCOC(=O)c1sc(NC(=O)c2ccco2)nc1-c1ccccc1 | inactive: -11.3% | –
CC(=O)c1c(C)[nH]c(C(=O)Nc2cc(S(=O)(=O)N3CCCCC3)ccc2C)c1C | – | inconclusive: 1.58 µM [inhibitor, full curve, poor fit]
O=C(CCCN1C(=O)/C(=C\c2ccccc2)SC1=S)Nc1ccccc1O | – | active: 11.2 µM
Cc1ccccc1C(=O)NNC(=O)c1cc(N)cc([N+](=O)[O-])c1 | – | inconclusive: 31.6 µM [inhibitor, single point]
COc1ccc(OC(=O)COc2ccc(Cl)cc2)cc1 | inactive: -23.4% | –
Cc1cccc(NC(=S)N2CCC(C(=O)c3ccc(F)cc3)CC2)c1C | – | inconclusive: 0.141 µM [inhibitor, full curve, poor fit]
C/C(=N\NP(=S)(c1ccccc1)c1ccccc1)c1ccc(O)cc1O | – | active: 15.8 µM
COCCN(C(=O)Cc1cccs1)C(C(=O)NCc1ccc(OC)cc1)c1ccc(OC)cc1 (stereo unspecified) | – | inconclusive: 7.08 µM [inhibitor, single point]
Cc1cccc(NC(=O)CSc2nccn2Cc2ccco2)c1 | inactive: -3.43% | –
CCOc1ccc2nc(NC(=O)CSc3nc4ccccc4c(=O)n3Cc3ccco3)sc2c1 | – | inconclusive: 3.55 µM [inhibitor, partial curve]
O=c1nc2ccccc2c2n1CC(CN1CCN(c3ccc(F)cc3)CC1)N2 (stereo unspecified) | – | inconclusive: 6.31 µM [inhibitor, single point]
Nc1ccc(C(=O)OCc2nc3cc4ccccc4cc3[nH]2)cc1 | – | inconclusive: 20 µM [inhibitor, partial curve]
Cc1ccc2c(CC(=O)NNC(=O)c3ccccc3O)coc2c1 | inactive: -27.1% | –
Cc1ccc(C2=NN(C(=O)c3cccs3)C(c3ccccc3O)C2)cc1 (stereo unspecified) | – | active: 7.94 µM
Cc1cc2ccccc2n1CCNC(=O)COc1ccc2ccccc2c1 | – | active: 10 µM
CC1=Nc2cc([N+](=O)[O-])ccc2NC(C)(C)C1 | inactive: -6.12% | –
CCc1sc(NC(=O)c2cc3ccccc3oc2=O)nc1-c1cccs1 | inactive: -27% | –
COc1ccc(C2CC(c3ccccc3)=NN2c2ccc(C(N)=O)cc2)cc1 (stereo unspecified) | inactive: 6.83% | –
CC(=O)Nc1ccc(N2C(=O)C3C4CC(=O)C(c5ccccc54)C3C2=O)cc1 (stereo unspecified) | – | inconclusive: 0.251 µM [inhibitor, full curve, poor fit]

— PubChem BioAssay AID485341 (National Center for Advancing Translational Sciences (NCATS), 2010)
